Measurements taken from the supplement of paper PMC12645437, “Orthogonal IMiD-Degron Pairs Induce Selective Protein Degradation in Cells” (ACS Chemical Biology, 2025).
The other results are listed elsewhere or left out.

These sequences were tested against no compound (DMSO) (assay: log2 fold change of degron read counts, EGFP-low vs EGFP+ sorted cells; higher = lower degron-EGFP level without compound (poor expression or instability)). Conditions: compound: DMSO control; 18 h.
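Also: jurkat cells carrying a lentiviral library of mutant zinc finger degrons fused to EGFP plus mCherry, mCherry+ cells FACS sorted, degron abundance counted by next-generation sequencing.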

Sequence	log2 fold change of degron read counts
FMCPICGRRFTQKGNLLRHIKL	0.0202
FLCEICGRCFTQKGNLLRHIKL	-1.15
FMCPICGHPFTQKGNLLRHIKL	0.543
FCCNQCGAGFTQKGNLLRHIKL	-0.433
FACDVCGAWFTQKGNLLRHIKL	-0.417
LHCNQCGFDCTQKGNLLRHIKL	-0.191
FDCPICGHTFTQKGNLLRHIKL	-0.8
FKCNQCGHIFTQKGNLLRHIKL	0.109
FQCNICGAAFTQKGNLLRHIKL	-0.844
FSCNQCGASFTQKGNLLRHIKL	-1.02
FHCEQCGAPFTQKGNLLRHIKL	-1.46
FLCEICGADFTQKGNLLRHIKL	-2.68
FGCNQCGHVFTQKGNLLRHIKL	0.978
FGCDQCGALFTQKGNLLRHIKL	-0.319
FWCDICGAKFTQKGNLLRHIKL	-0.874
FCCPVCGAIFTQKGNLLRHIKL	0.742
FFCEQCGAVFTQKGNLLRHIKL	-0.643
FGCEVCGAPFTQKGNLLRHIKL	-0.903
FTCPQCGAWFTQKGNLLRHIKL	0.0137
LSCPICGFGCTQKGNLLRHIKL	0.75
FKCPICGRMFTQKGNLLRHIKL	-0.374
LDCEICGFSCTQKGNLLRHIKL	-0.355
FKCNQCGACFTQKGNLLRHIKL	-0.797
FTCNQCGANFTQKGNLLRHIKL	-1.17
FGCDVCGAPFTQKGNLLRHIKL	-0.577

Sequence	log2 fold change of degron read counts
FTCNQCGACFTQKGNLLRHIKL	-1.33
FICDVCGAEFTQKGNLLRHIKL	-1.4
FTCEICGHQFTQKGNLLRHIKL	-2.22
LACPICGFHCTQKGNLLRHIKL	0.791
FFCPVCGAQFTQKGNLLRHIKL	-0.0638
FQCEICGAGFTQKGNLLRHIKL	-1.87
FRCNQCGARFTQKGNLLRHIKL	-0.00986
FRCPICGHNFTQKGNLLRHIKL	-0.554
FKCEICGALFTQKGNLLRHIKL	-1.19
FDCNQCGRYFTQKGNLLRHIKL	1.37
FICEICGRCFTQKGNLLRHIKL	-1.63
FACSVCGHCFTQKGNLLRHIKL	-0.88
FECSVCGHKFTQKGNLLRHIKL	-0.908
FQCNQCGAHFTQKGNLLRHIKL	-0.607
FMCDVCGAMFTQKGNLLRHIKL	-1.29
FACPQCGAYFTQKGNLLRHIKL	-0.605
FKCPVCGAQFTQKGNLLRHIKL	-0.681
FVCEICGRAFTQKGNLLRHIKL	-1.95
FTCPICGRYFTQKGNLLRHIKL	0.0704
LRCNQCGFFCTQKGNLLRHIKL	1.87
FMCSVCGHWFTQKGNLLRHIKL	0.911
FVCDQCGAVFTQKGNLLRHIKL	-2.91
LTCEICGFMCTQKGNLLRHIKL	-0.31
FHCPICGHIFTQKGNLLRHIKL	0.525
FDCDQCGAAFTQKGNLLRHIKL	-1.58
